According to PubChem BioAssay AID1476 (National Center for Advancing Translational Sciences (NCATS), 2009):
Several values for one entry are separate records, joined by “and”; a condition that tells them apart may be missing. Equal values may be shown once. About 4,500 (2.2%) of roughly 200,000 compounds were called active. Inconclusive results, whose numbers are uncertain, are shown with a selection of clear calls. The call rests on the fitted dose curve; in most records, active means well fitted inhibition curve with a large enough effect; inconclusive means small, poorly fitted or top-dose-only effect, or effect the other way; inactive means flat fitted curve, though single readings scatter. A potency beside an inconclusive call is a rough fit, not a confirmed value.

The compounds below were run against Cruzipain (Trypanosoma cruzi) (UniProt P25779) (assay: qHTS Assay for Promiscuous and Specific Inhibitors of Cruzain (without detergent)). Settings: purified cruzain, Z-FR-AMC fluorescence, no detergent.
Chain of UniProt P25779 (P25779 whole entry, looked up): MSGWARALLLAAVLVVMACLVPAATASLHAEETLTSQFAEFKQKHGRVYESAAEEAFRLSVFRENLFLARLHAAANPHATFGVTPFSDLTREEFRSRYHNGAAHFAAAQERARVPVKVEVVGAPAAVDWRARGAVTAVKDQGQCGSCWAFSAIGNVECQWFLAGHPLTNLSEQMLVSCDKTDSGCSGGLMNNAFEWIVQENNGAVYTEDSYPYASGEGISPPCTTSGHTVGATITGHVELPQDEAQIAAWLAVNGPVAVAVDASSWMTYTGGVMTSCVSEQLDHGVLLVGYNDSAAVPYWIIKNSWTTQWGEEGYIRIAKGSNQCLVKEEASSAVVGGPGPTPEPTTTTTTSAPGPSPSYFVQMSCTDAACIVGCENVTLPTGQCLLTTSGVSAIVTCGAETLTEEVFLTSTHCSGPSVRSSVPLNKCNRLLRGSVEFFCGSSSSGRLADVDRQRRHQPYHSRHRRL
How it was run: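 Detergent-free condition (0.00005% Triton X-100) in acetate buffer pH 5.5 with DTT. 1.5 nM enzyme and compound were pre-mixed 15 min, then 2 uM Z-FR-AMC substrate added; reaction progress from fluorescence change between first and third reads (60 s).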
Further: nearly all actives have a fitted effect of over 40% in size.
Potency means the concentration at half of the fitted maximal effect; tags describe the fitted curve by direction and shape.
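Wherever max response, negative = inhibition is given: plate controls were enzyme without inhibitor for no effect and buffer without enzyme for full effect.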

| SMILES | max response, negative = inhibition | Potency |
| --- | --- | --- |
| COC(=O)CS | inactive: -0.613% | – |
| CCC1/C=C/C=CCC(C)C(O)[C@@](C)(O)C(=O)C(C)C(O)C(C)C(=O)C(C)C(O)C(C)C=CC(=O)O[C@H]2C(C)C(CC1)O[C@]1(CCC(C)C(CC(C)O)O1)C2C (stereo partly drawn) | – | inconclusive: 10 µM [activator, partial curve] |
| CCn1nc(-c2ccccc2)c(-c2ccccc2)c(C(=O)Nc2nc(C)c(C(=O)N(C)C)s2)c1=O | – | inconclusive: 25.1 µM [activator, partial curve] |
| CCCn1c(CCC(=O)Nc2cc(Cl)c(OC)cc2OC)nc2cccnc21 | inactive: 6.8% | – |
| Cc1ccc(C)c(NC(=O)CSc2ncc3c(n2)-c2ccc(Cl)cc2N(C)S3(=O)=O)c1 | inactive: -5.38% | – |
| Cc1onc(-c2c(F)cccc2Cl)c1C(=O)Nc1sc2c(c1C#N)CCC(C(C)(C)C)C2 (stereo not drawn) | – | active: 10 µM |
| CC(=O)OC(COc1ccccc1)Cn1cnc2cc(C)c(C)cc21 (stereo not drawn) | – | inconclusive: 7.94 µM [activator, full curve, poor fit] |
| O=C(Nc1ccncc1)Nc1ccc(F)cc1F | – | inconclusive: 31.6 µM [inhibitor, single point] |
| Cc1c(CC=C(Cl)Cl)c(=O)[nH]c2c(C)cccc12 | – | active: 2.51 µM |
| CCOc1ccc(-c2nn(-c3ccccc3)cc2/C=C2\SC(=S)N(C3CCS(=O)(=O)C3)C2=O)cc1 (stereo not drawn) | – | active: 7.94 µM |
| CCN(CC)S(=O)(=O)c1cc(NC(=O)COC(=O)c2sc3ccccc3c2Cl)ccc1C | – | inconclusive: 25.1 µM [inhibitor, single point] |
| N#C/C(=C/c1cn(-c2ccccc2)nc1-c1cccc(S(=O)(=O)N2CCCC2)c1)C(=O)NCc1ccco1 | – | inconclusive: 25.1 µM [activator, single point] |
| O=C(Cn1c(=O)oc2cc(S(=O)(=O)N3CCCC3)ccc21)Nc1ccc(C(F)(F)F)cc1 | – | inconclusive: 39.8 µM [inhibitor, single point] |
| CCOC(=O)C(NS(=O)(=O)c1ccccc1)(C(F)(F)F)P(=O)(OC(C)C)OC(C)C (stereo not drawn) | – | inconclusive: 15.8 µM [activator, partial curve, poor fit] |
| CC(C)CN(CCCNC(=O)CN1C(=O)COc2ccc(S(=O)(=O)N3CCCCCC3)cc21)CC(C)C | inactive: -8.83% | – |
| Cc1cc(Nc2sc(C(=O)c3ccc(F)cc3)c(N)c2C(=O)Nc2ccc(F)cc2)ccc1Cl | – | inconclusive: 3.16 µM [inhibitor, full curve, poor fit] |
| COC(=O)c1[nH]c2cccc(C)c2c1NC(=O)CN1CCN(c2ccccc2OC)CC1 | – | inconclusive: 31.6 µM [activator, single point] |
| COc1cccc(N2CCN(C(=O)c3c(C)oc4ncnc(N5CCCCC5)c34)CC2)c1 | inactive: 0.694% | – |
| COCCn1c(-c2ccc(Cl)cc2)cnc1SCC(=O)NCCc1ccc(OC)c(OC)c1 | – | inconclusive: 31.6 µM [activator, single point] |
| CCC(=O)N(Cc1c(C)nn(-c2ccccc2)c1Cl)c1ccc(Cl)cc1 | – | inconclusive: 39.8 µM [activator, single point] |
| CNc1ccc(/C=C(\CCC(=O)O)c2nc3ccccc3s2)cc1[N+](=O)[O-] | – | inconclusive: 20 µM [activator, partial curve] |

| SMILES | max response, negative = inhibition | Potency |
| --- | --- | --- |
| CCOC(=O)c1c(C)sc(-c2c(-c3ccc4c(c3)OCCO4)[nH]c3c2c(=O)[nH]c(=O)n3C)c1O | – | inconclusive: 6.31 µM [activator, full curve] |
| O=C(c1ccc(-c2ccc(Cl)cc2)o1)N1CCN(c2ccc([N+](=O)[O-])cc2Cl)CC1 | – | active: 7.94 µM |
| COc1ccc(N(C(=O)COc2c(C)cccc2C)S(=O)(=O)c2ccc(Cl)cc2)cc1 | – | inconclusive: 31.6 µM [inhibitor, single point] |
| Cc1cccc(OCCN2C(=O)C(=O)c3cccc(C)c32)c1 | – | inconclusive: 39.8 µM [activator, single point] |
| COc1ccc(CC(=O)Nc2nnc(SCc3ccccc3)s2)cc1S(=O)(=O)N1CCOCC1 | – | inconclusive: 39.8 µM [activator, single point] |
| CCOc1cc(N(CC)CC)ccc1/C=C(/C#N)c1nc2ccccc2[nH]1 | – | active: 31.6 µM |
| CC(C)C(=O)Nc1ccc(NC(=O)c2cc3ccccc3o2)cc1 | – | inconclusive: 25.1 µM [inhibitor, single point] |
| O=C(NCCC1=CCCCC1)c1ccc2c(c1)N(Cc1ccc(F)cc1)C(=O)c1ccccc1S2(=O)=O | – | inconclusive: 39.8 µM [inhibitor, single point] |
| Nc1c(C(=O)Nc2cccc(Cl)c2)sc2nc3c(cc12)CN(Cc1ccccc1)CC3 | – | inconclusive: 31.6 µM [inhibitor, single point] |
| CC(C)NC(=O)c1ccc(Cn2c(=O)c3cccn3c3cccnc32)cc1 | inactive: -2.64% | – |
| CCOC(=O)c1cnc2ccccc2c1Nc1ccc2c(c1)OCCO2 | – | inconclusive: 6.31 µM [inhibitor, single point] |
| O=C(NCCc1ccccc1F)C1CCCN1S(=O)(=O)c1ccc2ccccc2c1 (stereo not drawn) | inconclusive: 30.8% [activator] | – |
| CC1=C(c2ccc(C)cc2)S(=O)(=O)N=C1N1CCN(c2ccccc2)CC1 | – | inconclusive: 10 µM [inhibitor, partial curve] |
| COc1ccc(NC(=O)C2CCN(c3cc(-c4ccccc4)nc4ncnn34)CC2)cc1OC | – | inconclusive: 39.8 µM [activator, single point] |
| CCOC(=O)c1ccccc1NC(=O)CSc1nc2ncccc2o1 | inactive: 1.57% | – |
| COc1ccc2cc3cc(C(=O)NCc4ccccn4)oc3nc2c1 | inconclusive: -494% [inhibitor] | – |
| Cc1cc2c(cc3c(SCc4ccc(Cl)cc4)nnc(C)n32)o1 | – | inconclusive: 20 µM [activator, single point] |
| COc1cc(C)nc(Oc2ccc(OCCOc3ccc(C)cc3)nn2)n1 | – | inconclusive: 31.6 µM [activator, single point] |
| O=c1c(O)c(-c2ccccc2)oc2ccc3occc3c12 | inactive: -4.81% | – |
| Cc1ccc(-c2nc3sccn3c2Nc2ccccc2C)cc1 | – | active: 25.1 µM |
| COc1ccccc1C1C2=C(N=c3s/c(=C/c4cccc(OCC(=O)O)c4)c(=O)n31)c1ccccc1CC2 (stereo not drawn) | – | inconclusive: 3.98 µM [activator, full curve] |

| SMILES | max response, negative = inhibition | Potency |
| --- | --- | --- |
| COC(=O)[C@@]1(Cc2ccc(F)cc2)[C@H]2c3cc(C(=O)N4CCCC4)n(Cc4ccc(S(C)(=O)=O)cc4)c3C[C@H]2CN1C(=O)c1ccccc1 | – | inconclusive: 25.1 µM [activator, partial curve] |
| Cc1cc(C(=O)OCC(=O)Nc2nnc(C(C)C)s2)c2ccccc2n1 | inactive: -3.17% | – |
| Cc1cccc2c1-c1sc(C(=O)NCCc3ccc(Cl)cc3)cc1CO2 | – | active: 25.1 µM |
| Cc1ccc(-c2[nH]c3ccccc3c2SCCNC(=O)c2ccc(S(=O)(=O)N3CCOCC3)cc2)cc1 | – | inconclusive: 3.98 µM [activator, single point] and inconclusive: 39.8 µM [inhibitor, single point] |
| Cc1cccc(C(=O)NCC(=O)OCC(=O)N2CC3(C)CC2CC(C)(C)C3)c1 (stereo not drawn) | – | active: 12.6 µM |
| CC1=CN2C(=N)/C(=C/c3cn(CCCOc4ccccc4C)c4ccccc34)C(=O)N=C2S1 | – | active: 3.16 µM |
| CCS(=O)(=O)c1ccc(-c2csc(-c3ccc(Cl)cc3)n2)c(Cl)c1Cl | – | inconclusive: 31.6 µM [inhibitor, single point] |
| C=CCNc1sc(C(=O)c2ccc(Br)s2)c(N)c1C#N | – | active: 15.8 µM |
| N#Cc1cc(-c2ccc(Cl)cc2)cnc1Sc1ccc(F)cc1 | inactive: -0.831% | – |
| COc1ccc(-c2nnc(NC(=O)c3ccc(S(=O)(=O)N4COCC4(C)C)cc3)o2)cc1 | – | inconclusive: 25.1 µM [activator, single point] |
| O=C(Cc1cc(=O)[nH][nH]1)N/N=C/C=C/c1ccccc1 | inactive: 1.58% and inactive: -11.2% | – |
| Cc1nn(-c2nc3ccccc3s2)c(N)c1-c1ccccc1 | – | inconclusive: 25.1 µM [inhibitor, single point] |
| COc1ccc(NC(=O)c2ccc3c(c2)c(C)c(C)n3Cc2ccc(F)cc2)cc1 | – | inconclusive: 31.6 µM [inhibitor, single point] |
| Cc1cc(-c2nnc(SCC(=O)c3ccc(Cl)cc3)o2)no1 | – | active: 25.1 µM |
| CCN1CCN(Cc2nc3cc(NC(=O)c4ccccc4[N+](=O)[O-])ccc3n2CC)CC1 | – | inconclusive: 39.8 µM [inhibitor, single point] |
| COc1ccc(NC(=O)c2c(N)c(C(=O)c3ccc(C)cc3)n3ccccc23)cc1OC | – | inconclusive: 3.98 µM [activator, partial curve, poor fit] |
| Cc1ccc(C)c(CN2C(=O)c3ccccc3Sc3ccc(C(=O)NCc4cccs4)cc32)c1 | – | inconclusive: 31.6 µM [inhibitor, single point] |
| CCOc1cc(-c2ccc(N)c(OCC)c2)ccc1N | – | active: 25.1 µM |
| COc1cc(-c2nc(-c3ccccc3)c(-c3cccs3)[nH]2)cc(OC)c1O | – | inconclusive: 39.8 µM [activator, single point] |
| Cc1cccc(Nc2nnc(C)c(=O)n2N)c1 | inactive: -0.265% | – |
| CCN1C(=O)c2cccc3c(NC(=O)C4CCCCC4)ccc1c23 | – | inconclusive: 39.8 µM [activator, single point] |
